Assay results as given in PubChem BioAssay AID588855 (National Center for Advancing Translational Sciences (NCATS), 2011).
Among all 410,000 compounds or so, about 5,000 (1.2%) were called active. The inconclusive results got no clear call from the source; some entries with a clear call stand among them for comparison. Calls come from the whole dose curve; as a rule, active = well fitted inhibition curve with a large enough effect; inconclusive = small, poorly fitted or top-dose-only effect; inactive = no such curve, though single readings can be large or run the other way. Where the call is inconclusive, the potency comes from a doubtful curve fit.

Experiment: qHTS for Inhibitors of TGF-b; note: nearly all actives have a fitted effect of over 65% in size
Details: HepG2 CAGA-GFP TGF-b/SMAD3 reporter, GFP fluorescence, 18 h, TGF-beta stimulated, 500 pg/mL final; series mostly up to 46.1 µM; activity, negative = inhibition: at the top concentration
How it was run: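 Per well, imaged GFP fluorescence of HEPG2 CAGA-GFP cells gives the signal; cells get compound, then TGF-beta (500 pg/mL final), 18 h at 37 degrees C; %Activity versus -TGF-beta and +DMSO controls.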
% is set by controls: 0 for no effect and ±100 for the full control effect; potency is the fitted concentration of half-maximal effect; tags give direction and shape of the fitted curve.

| SMILES | Potency | activity, negative = inhibition |
| --- | --- | --- |
| Cn1c(=O)[nH]c(=O)c2c1nc([N+](=O)[O-])n2Cc1ccccc1 | active: 5.01 µM | – |
| O=C(Nc1cccc([N+](=O)[O-])c1)c1ccc([N+](=O)[O-])o1 | inconclusive: 15.8 µM [inhibitor, single point] | – |
| N=c1ccn(CC(=O)c2ccc(-c3ccccc3)cc2)cc1 | inconclusive: 4.47 µM [inhibitor, full curve, poor fit] | – |
| CCOc1ccc(OCC)c(NC(=O)c2nnn(CC(=O)Nc3ccc(C)cc3C)c2N)c1 | inconclusive: 11.2 µM [inhibitor, partial curve, poor fit] | – |
| CCOc1ccc(C(=O)N2CCC(c3nc4ccccc4o3)CC2)cc1 | – | inactive: -0.196% |
| Cc1ccc(-c2nc3sc(CCNC(=O)c4ccc(Br)o4)c(C)n3n2)cc1 | active: 17.8 µM | – |
| CCCn1c(/C=N/Nc2nc3ccccc3[nH]2)nc2ccccc21 | inconclusive: 17.8 µM [inhibitor, single point] | – |
| Cc1nn(-c2ccccc2)c2c1C1(C(=O)N3c4c(cccc41)C(C)CC3(C)C)C(C#N)=C(N)O2 (stereo not drawn) | inconclusive: 20 µM [inhibitor, single point] | – |
| Cc1ccc(-c2c(CN3CCN(c4cccc(C(F)(F)F)c4)CC3)csc2C)cc1 | inconclusive: 8.91 µM [inhibitor, partial curve, poor fit] | – |
| Cc1cc(Cl)ccc1OCc1n[nH]c(=S)n1C1CCCCC1 | inconclusive: 17.8 µM [inhibitor, single point] | – |
| C=C1CC2(CC(c3ccccc3)OC(c3ccccc3)C2)OC1=O (stereo not drawn) | inconclusive: 35.5 µM [inhibitor, single point] | – |
| Cc1cc(C)c(S(=O)(=O)Nc2ccc3c(c2)CCC3)c(C)c1 | active: 17.8 µM | – |
| O=C(c1cc(COc2ccc(F)cc2Cl)on1)N1CCN(C2CCCCC2)C(=O)C1 | inconclusive: 15.8 µM [inhibitor, single point] | – |
| COc1ccc(C(=O)/C=C/c2ccc(OC3CSC3)cc2)cc1OC | inconclusive: 35.5 µM [inhibitor, single point] | – |
| CCN1CCN(CCCNC(=O)c2cnn(-c3ccccc3)c2C2CCN(C(=O)OC(C)(C)C)CC2)CC1 | – | inactive: -19.9% |
| CC(C)c1ccc(NC2CCCN(C(=O)CCN3CCCC3=O)C2)cc1 (stereo not drawn) | inconclusive: 2.51 µM [inhibitor, full curve] | – |
| COc1ccc(NC(=O)CN2CCN(c3c(C)cc(C)cc3C)CC2)cc1 | inconclusive: 35.5 µM [inhibitor, single point] | – |
| COc1cc(OC)c(OC)cc1/C=C1\CCC/C(=C\c2cc(OC)c(OC)cc2OC)C1=O | inconclusive: 25.1 µM [inhibitor, single point] | – |
| CC(C)c1ccc(NC(=O)CN2C(=O)NC(C)(C3CC3)C2=O)cc1 (stereo not drawn) | – | inactive: -9.46% |
| COCCCn1c(=O)/c(=C/c2ccccc2OC(C)C)s/c1=C(\C#N)C(=O)Nc1ccc(C(=O)O)cc1 | inconclusive: 28.2 µM [inhibitor, single point] | – |
| COc1ccccc1NC(=O)c1c(NCc2ccc(OC)c(OC)c2OC)sc2c1CCCC2 | inconclusive: 22.4 µM [inhibitor, single point] | – |
| O=C(Nc1ccc(Cl)c(S(=O)(=O)N2CCCCC2)c1)c1ccco1 | – | inactive: -19.7% |
| COC(=O)CSc1cc(C)nc2ccc(OC)cc12 | – | inactive: 3.69% |

| SMILES | Potency | activity, negative = inhibition |
| --- | --- | --- |
| CN1C(C(=O)c2ccccc2)=C(OC(=O)c2ccc(Br)cc2)c2ccccc2S1(=O)=O | inconclusive: 31.6 µM [inhibitor, single point] | – |
| Cc1nc(C)c(-c2csc(Nc3ncccc3C)n2)s1 | – | inactive: -20.7% |
| Cc1ccc(NS(=O)(=O)c2cc(C(=O)N3CCc4ccccc4C3)ccc2Cl)cc1 | inconclusive: 20 µM [inhibitor, single point] | – |
| COCCNc1nc(Nc2ccc(C)cc2C)c2sccc2n1 | inconclusive: 10 µM [inhibitor, partial curve, poor fit] | – |
| CCOC(=O)CSc1nc2ccccc2n2cnnc12 | – | inactive: -1.13% |
| Cc1nc(N)nc(N)c1CCCc1ccc(Cl)c(Cl)c1 | inconclusive: 35.5 µM [inhibitor, single point] | – |
| CCCCn1c(=O)[nH]c(=O)c2c1nc(CN(C)Cc1cccc(OC)c1OC)n2CCC | – | inactive: 0% |
| Cc1ccc2c(c1)N(C(=O)CCC(=O)Nc1ccccc1Br)CC(C)O2 (stereo not drawn) | inconclusive: 2.51 µM [inhibitor, single point] | – |
| Cc1cccc(NC(=O)c2c(C)oc3ncn(CC(C)C)c(=O)c23)n1 | – | inactive: -2.55% |
| Cc1cccc(NC(=S)N/N=C/c2cccc([N+](=O)[O-])c2)c1 | inconclusive: 35.5 µM [inhibitor, single point] | – |
| N#CCCN(C(=O)CSc1nc(-c2ccccc2)cn1N)c1ccc(F)cc1 | inconclusive: 22.4 µM [inhibitor, single point] | – |
| Cc1ccc(C)c(NC(=S)NCCc2ccc(F)cc2)c1 | inconclusive: 8.91 µM [inhibitor, partial curve] | – |
| Cc1ccsc1C(=O)C1CCCN(Cc2cccn2-c2ccc(Cl)cn2)C1 (stereo not drawn) | inconclusive: 28.2 µM [inhibitor, single point] | – |
| Cc1cccc2cc(C#N)c(SCC(=O)N3CC(=O)Nc4ccccc43)nc12 | inconclusive: 7.94 µM [inhibitor, partial curve, poor fit] | – |
| O=C(CN1C2=NCCCN2c2ccccc21)c1cccc(Br)c1 | inconclusive: 35.5 µM [inhibitor, single point] | – |
| Cc1csc2nc(-c3cccc(NC(=O)C(C)C)c3)cn12 | – | inactive: -1.19% |
| CCc1ccccc1NC(=O)c1ccc2c(c1)N(Cc1cccc(Cl)c1)C(=O)c1ccccc1S2(=O)=O | – | inactive: 2.27% |
| CC(C)[C@H](N)C(=O)N[C@H]1CCC2C3CC=C4C[C@@H](O)CC[C@]4(C)C3CC[C@@]21C (stereo partly drawn) | inconclusive: 35.5 µM [inhibitor, single point] | – |
| O=C(Nc1nccs1)[C@@H]1CC=C[C@@H]2CCN(Cc3ccccc3)C(=O)[C@@H]21 | inconclusive: 1.26 µM [inhibitor, partial curve, poor fit] | – |
| NS(=O)(=O)c1ccc(F)c(C(=O)O)c1 | – | inactive: 21% |
| COc1ccc(C2CC(=O)Nc3c2c(C)nn3-c2nncc(-c3ccc(C)cc3)n2)c(OC)c1OC (stereo not drawn) | inconclusive: 3.16 µM [inhibitor, full curve, poor fit] | – |
| COc1cc(CN2CCN(c3cccc(C)c3C)CC2)cc(Br)c1O | inconclusive: 35.5 µM [inhibitor, single point] | – |
| O=c1[nH]c(C2CCCN(S(=O)(=O)c3ccccc3)C2)nc2c1nnn2Cc1cccc(Cl)c1 (stereo not drawn) | inconclusive: 14.1 µM [inhibitor, single point] | – |

| SMILES | Potency | activity, negative = inhibition |
| --- | --- | --- |
| Cc1nc2sc(C(N)=O)c(N)c2c2c1CCCC2 | inconclusive: 15.8 µM [inhibitor, single point] | – |
| COCCn1c(C)cc(C(=O)COC(=O)c2[nH]c(C)c(C(C)=O)c2C)c1C | – | inactive: -22.3% |
| C=CCOc1ccc(/C=N/N2C(=O)C(CC(=O)Nc3ccc(F)cc3F)SC2=NC)cc1 (stereo not drawn) | inconclusive: 20 µM [inhibitor, single point] | – |
| Cc1ccc(C2(c3ccccc3)NC(=O)N(CC(=O)NC3CCCCC3)C2=O)cc1C (stereo not drawn) | – | inactive: -2.31% |
| CC(=O)OC1CCC2(C)C(CCC3C4CC=C(C(C)=O)C4(C)OC(=O)CC32)C1 (stereo not drawn) | active: 3.98 µM | – |
| CCOc1ccc2[nH]c(C)cc(=O)c2c1 | – | inactive: 0.0712% |
| COc1ccc(C2COc3cc(O)ccc3C2)c(OC)c1O (stereo not drawn) | – | inactive: -17.3% |
| CC[n+]1c(/C=C/c2ccc(N(C)C)cc2)ccc2ccccc21 | active: 3.55 µM | – |
| COc1ccc(-n2ccnc2SCC(=O)Nc2ccc(F)cc2F)cc1 | – | inactive: 3.73% |
| O=C(NCCCN1CCOCC1)c1cccc(S(=O)(=O)N2CCN(c3ccccc3)CC2)c1 | inconclusive: 35.5 µM [inhibitor, partial curve, poor fit] | – |
| Cc1ccc2onc(CNC(=O)N3CCN(c4cccc(C)c4C)CC3)c2c1 | inconclusive: 35.5 µM [inhibitor, partial curve, poor fit] | – |
| CCN1C(=O)C(CC(=O)Nc2ccc(Br)cc2)N(CCCc2ccccc2)C1=S (stereo not drawn) | inconclusive: 22.4 µM [inhibitor, single point] | – |
| Cc1cccc(-c2ccc(NC(=O)C3CCN(CC4CC4)CC3)cc2)c1 | inconclusive: 25.1 µM [inhibitor, single point] | – |
| CCCC(=O)Nc1ccc(-c2csc(-c3cccnc3)n2)cc1 | – | inactive: -1.02% |
| COc1cc(NC(=O)c2ccc(C)cc2)ccc1NC(=O)c1cc2ccccc2o1 | inconclusive: 35.5 µM [inhibitor, single point] | – |
| Cc1cc2nn(-c3ccc(Cl)cc3)nc2cc1N | active: 0.794 µM | – |
| Cc1ccc(-c2nn(-c3ccccc3)cc2C(=O)NCC2CCCO2)cc1 (stereo not drawn) | inconclusive: 4.47 µM [inhibitor, single point] | – |
| COc1ccc(NC(=O)CSc2nccn2Cc2ccc(F)cc2)c(OC)c1 | inconclusive: 35.5 µM [inhibitor, single point] | – |
| COc1ccc2cc(S(=O)(=O)N3CCCCC3)ccc2c1S(=O)(=O)N1CCCCC1 | inconclusive: 35.5 µM [inhibitor, single point] | – |
| O=S(=O)(c1ccc(Cl)cc1Br)N1CCCCC1 | inconclusive: 3.55 µM [inhibitor, single point] | – |
| Cc1cn([C@H]2C[C@H](O)[C@@H](/C=C/C(=O)NCCc3ccc4c(c3)OCO4)O2)c(=O)[nH]c1=O | – | inactive: 1.45% |
| Cc1ccc(C)c(NC(=O)c2cc(S(=O)(=O)N3CCCCCC3)ccc2F)c1 | inconclusive: 0.447 µM [inhibitor, partial curve, poor fit] | – |
